Measured values reported in US20230331822A1 (published 2023).

B1: COV2-120-17-Fc (Fc fusion)
chain: QLQLVESGGDLVQPGESLRLSCVASGHTGSTYIIGWFRQAPGKEREGVSCISRSGILRSYADSVRGRFTISRENAKNAVYLEMNSLKPEDTAVYYCAARDSLTGVIGNTPGEYDYWGQGTQVTVSS[human IgG1 Fc with changes not listed]
B2: COV2-153-18-Fc (Fc fusion)
chain: QLQLVESGGDLVQPGESLRLSCVASGRTVSSYVIGWFRQAPGKEREGVSCISRSGIITSYADSVRGRFTISRENAKNAVYLEMNSLKPEDTAVYYCAAAQTQVLPTEDRSYDYWGQGTQVTVSS[human IgG1 Fc with changes not listed]
B3: COV2-116-9-Fc (Fc fusion)
chain: QLQLVESGGDLVQPGESLRLSCVASGFTLDYYAIGWFRQAPGKEREGVSCISSSGTSTSYADSVRGRFTISRENAKNAVYLEMNSLKPEDTAVYYCAALQGSYYYTSLHQTEYDYWGQGTQVTVSS[human IgG1 Fc with changes not listed]
B4: COV2-171-11-Fc (Fc fusion)
chain: QLQLVESGGDLVQPGESLRLSCVASGFTLDYYAIGWFRQAPGKEREGVSCISPSGTSTSYADSVRGRFTISRENAKNAVYLEMNSLKPEDTAVYYCAAANPSYYYCSGYPHEYDDWGQGTQVTVSS[human IgG1 Fc with changes not listed]
B5: COV2-187-2-Fc (Fc fusion)
chain: QLQLVESGGDLVQPGESLRLSCVASGLSLEHYAIGWFRQAPGKEREGVSCIDSSGGSTSYADSVRGRFTISRENAKNAVYLEMNSLKPEDTAVYYCAALQGSYYYTSLHQTEYDYWGQGTQVTVSS[human IgG1 Fc with changes not listed]
B6: COV2-39-19-Fc (Fc fusion)
chain: QLQLVESGGDLVQPGESLRLSCVASGRTFTRYPIGWFRQAPGKEREGVSCISGSGIITSYADSVRGRFTISRENAKNAVYLEMNSLKPEDTAVYYCAVDNAPTSSLPLTPGEYDYWGQGTQVTVSS[human IgG1 Fc with changes not listed]
B7: COV2-124-20-Fc (Fc fusion)
chain: QLQLVESGGDLVQPGESLRLSCVASGRTFSSYAIGWFRQAPGKEREGVSCISSGGITSYADSVRGRFTISRENAKNAVYLEMNSLKPEDTAVYYCAANRGRFTGWRSLTDYTYWGQGTQVTVSS[human IgG1 Fc with changes not listed]
B8: COV2-18-21-Fc (Fc fusion)
chain: QLQLVESGGDLVQPGESLRLSCVASGRTFSTYAIGWFRQAPGKEREGVSCISPSRIITSYADSVRGRFTISRENAKNAVYLEMNSLKPEDTAVYYCAADSSYGGRLGRRIDDYEYWGQGTQVTVSS[human IgG1 Fc with changes not listed]
B9: COV2-151-23-Fc (Fc fusion)
chain: QLQLVESGGDLVQPGESLRLSCVASASGRTSSTIGWFRQAPGKEREGVSCITWSGGSTSYADSVRGRFTISRENAKNAVYLEMNSLKPEDTAVYYCAAGLSPLMLTASRRYEYWGQGTQVTVSS[human IgG1 Fc with changes not listed]
B10: COV2-214-24-Fc (Fc fusion)
chain: QLQLVESGGDLVQPGESLRLSCVASGRTVSMYAIGWFRQAPGKEREGVSCISRSGRSTSYADSVRGRFTISRENAKNAVYLEMNSLKPEDTAVYYCAARDGGLHYALYVEASHYNYWGQGTQVTVSS[human IgG1 Fc with changes not listed]
B11: COV2-331-25-Fc (Fc fusion)
chain: QLQLVESGGDLVQPGESLRLSCVASGFTFSSYAIGWFRQAPGKEREGVSCLDVTGRSTSYADSVRGRFTISRENAKNAVYLEMNSLKPEDTAVYYCAAVYTPFRFAFKTDPDRQDHWGQGTQVTVSS[human IgG1 Fc with changes not listed]
B12: COV2-32-26-Fc (Fc fusion)
chain: QLQLVESGGDLVQPGESLRLSCVASGRTFGTYRIGWFRQAPGKEREGVSCIFWSGGGASYADSVRGRFTISRENAKNAVYLEMNSLKPEDTAVYYCAARAPTTQEYDYWGQGTQVTVSS[human IgG1 Fc with changes not listed]
B13: COV2-360-3-Fc (Fc fusion)
chain: QLQLVESGGDLVQPGESLRLSCVASGFTLDSYAIGWFRQAPGKEREGVSCITKHGGTTSYADSVRGRFTISRENAKNAVYLEMNSLKPEDTAVYYCAADHRALRFGCAVVPGPYDYWGQGTQVTVSS[human IgG1 Fc with changes not listed]
B14: COV2-143-4-Fc (Fc fusion)
chain: QLQLVESGGDLVQPGESLRLSCVASGLTLNNNTIGWFRQAPGKEREGVSCISPSGIVTSYADSVRGRFTISRENAKNAVYLEMNSLKPEDTAVYYCAVLQWNGAGLPSPLGSWGQGTQVTVSS[human IgG1 Fc with changes not listed]
B15: COV2-13-5-Fc (Fc fusion)
chain: QLQLVESGGDLVQPGESLRLSCVASGFTLGNYEIGWFRQAPGKEREGVSCISRSGVIFSYADSVRGRFTISRENAKNAVYLEMNSLKPEDTAVYYCAARFRAGLVQSLCQSTPEFYQDWGQGTQVTVSS[human IgG1 Fc with changes not listed]
B16: COV2-356-6-Fc (Fc fusion)
chain: QLQLVESGGDLVQPGESLRLSCVASGFTLGNYAIGWFRQAPGKEREGVSCISLSGDIISYADSVRGRFTISRENAKNAVYLEMNSLKPEDTAVYYCAAPFPSLLYCSLCPSNPEFCRHWGQGTQVTVSS[human IgG1 Fc with changes not listed]
B17: COV2-115-7-Fc (Fc fusion)
chain: QLQLVESGGDLVQPGESLRLSCVASGFSLDGYAIGWFRQAPGKEREGVSCIGRLGTTTSYADSVRGRFTISRENAKNAVYLEMNSLKPEDTAVYYCAAKRSTWFGCSTLDDYDYWGQGTQVTVSS[human IgG1 Fc with changes not listed]
B18: COV2-22-8-Fc (Fc fusion)
chain: QLQLVESGGDLVQPGESLRLSCVASGFTLDRYAIGWFRQAPGKEREGVSCISSGGTTSYADSVRGRFTISRENAKNAVYLEMNSLKPEDTAVYYCAAGTQLRYGCSRQARRYDYWGQGTQVTVSS[human IgG1 Fc with changes not listed]
B19: COV2-114-1-Fc (Fc fusion)
chain: QLQLVESGGDLVQPGESLRLSCVASGLSLEHYAIGWFRQAPGKEREGVSCISDSGATRSYADSVRGRFTISRENAKNAVYLEMNSLKPEDTAVYYCSATPGAFRTCAFRDFSHLANWGQGTQVTVSS[human IgG1 Fc with changes not listed]
B20: COV2-122-10-Fc (Fc fusion)
chain: QLQLVESGGDLVQPGESLRLSCVASGATSDIYAIGWFRQAPGKEREGVSCISPSGGSTSYADSVRGRFTISRENAKNAVYLEMNSLKPEDTAVYYCAAASPSWHYCSGYEHEYDDWGQGTQVTVSS[human IgG1 Fc with changes not listed]
B21: COV2-136-12-Fc (Fc fusion)
chain: QLQLVESGGDLVQPGESLRLSCVASGFTFHYYAIGWFRQAPGKEREGVSCISSGGGRTSYADSVRGRFTISRENAKNAVYLEMNSLKPEDTAVYYCAALQGSLHYCSGLVGEYEYWGQGTQVTVSS[human IgG1 Fc with changes not listed]
B22: COV2-237-13-Fc (Fc fusion)
chain: QLQLVESGGDLVQPGESLRLSCVASFKSYHIAWIGWFRQAPGKEREGVSCSLTGASITSYADSVRGRFTISRENAKNAVYLEMNSLKPEDTAVYYCAARDYASSLYCSRNEAMYAYWGQGTQVTVSS[human IgG1 Fc with changes not listed]
B23: COV2-353-14-Fc (Fc fusion)
chain: QLQLVESGGDLVQPGESLRLSCVASGFRLGGYAIGWFRQAPGKEREGVSCISGSGIISSYADSVRGRFTISRENAKNAVYLEMNSLKPEDTAVYYCAAPSGSSYGSRRLPCGIDSQDYQTWGQGTQVTVSS[human IgG1 Fc with changes not listed]
B24: COV2-121-15-Fc (Fc fusion)
chain: QLQLVESGGDLVQPGESLRLSCVASFDDFAIGWIGWFRQAPGKEREGVSCSARGIVNTSYADSVRGRFTISRENAKNAVYLEMNSLKPEDTAVYYCAALVGLNDRSLPHEAEEYDYWGQGTQVTVSS[human IgG1 Fc with changes not listed]
B25: COV2-324-16-Fc (Fc fusion)
chain: QLQLVESGGDLVQPGESLRLSCVASGFTFDDYSIGWFRQAPGKEREGVSCFSSLDGSTSYADSVRGRFTISRENAKNAVYLEMNSLKPEDTAVYYCAATRGSSWYWYRPSEYDYWGQGTQVTVSS[human IgG1 Fc with changes not listed]

What follows are binders tested against T1, SARS-CoV Spike protein, full length, C-terminally fused with EGFP (SARS-CoV) (assay: flow cytometry, HEK293 cells expressing full-length Spike-EGFP, anti-hIg-PE).
T1 construct: whole, on cells
B1: no binding. B2: no binding. B3: no binding. B4: no binding. B5: no binding. B6: no binding. B7: no binding. B8: no binding. B9: no binding. B10: no binding. B11: no binding. B12: no binding. B13: no binding. B14: no binding. B15: no binding. B16: no binding. B17: no binding. B18: no binding. B19: no binding. B20: no binding. B21: no binding. B22: no binding. B23: no binding. B24: no binding. B25: no binding.

The binders below were run against T2, MERS-CoV Spike protein, full length, C-terminally fused with EGFP (MERS-CoV) in the same assay as above.
T2 construct: whole, on cells
B1: no binding. B2: no binding. B3: no binding. B4: no binding. B5: no binding. B6: no binding. B7: no binding. B8: no binding. B9: no binding. B10: no binding. B11: no binding. B12: no binding. B13: no binding. B14: no binding. B15: no binding. B16: no binding. B17: no binding. B18: no binding. B19: no binding. B20: no binding. B21: no binding. B22: no binding. B23: no binding. B24: no binding. B25: no binding.
